# Assay results as given in the antibiotic and cytotoxicity screens of Wong et al. (2023).
# The list shows a part of the results.
# Test system: HSkMC (human skeletal muscle cells)
# Assay: cytotoxicity call (relative viability < 0.9)
# Settings: 10 µM
row,SMILES,cytotoxicity call
1,COc1ccc(S(=O)(=O)N(C)C[C@@H]2Oc3ccc(NC(=O)C4CC4)cc3CC(=O)N([C@@H](C)CO)C[C@H]2C)cc1,inactive
2,Cl.Cl.O=C1c2c(O)ccc(O)c2C(=O)c2c(NCCNCCO)ccc(NCCNCCO)c21,active
3,C[C@@H]1CN([C@H](C)CO)C(=O)c2cccc(NC(=O)c3ccc(-c4nccs4)cc3)c2O[C@@H]1CN(C)C(=O)Nc1ccccc1,inactive
4,COc1cccc(OCc2ccc(Cn3nc(NC(=O)NCc4ccc(F)cc4)c4ccccc43)cc2)c1,inactive
5,Cc1noc(C)c1NC(=O)N(C)C[C@@H]1OCCCC[C@@H](C)Oc2ccc(NS(=O)(=O)c3ccc(Cl)cc3)cc2C(=O)N([C@@H](C)CO)C[C@H]1C,inactive
6,C[C@H]1CN([C@@H](C)CO)C(=O)Cc2cc(NC(=O)Cc3cn(C)c4ccccc34)ccc2O[C@H]1CN(C)Cc1ccc(C(F)(F)F)cc1,inactive
7,C[C@H](CO)N1C[C@H](C)[C@H](CN(C)Cc2ccc(Oc3ccccc3)cc2)Oc2c(NS(=O)(=O)c3cccs3)cccc2C1=O,inactive
8,CN1C(=O)c2cc(NS(=O)(=O)c3ccc(F)cc3)ccc2OC[C@@H]2O[C@H](CC(=O)NCC(F)(F)F)CC[C@H]21,inactive
9,Cc1ccc(S(=O)(=O)N[C@H]2C=C[C@@H](CC(=O)NCCN3CCCCC3)O[C@H]2CO)cc1,inactive
10,CCOC(=O)c1n[nH]c(=S)[nH]c1=O,inactive
11,C[C@@H]1CN([C@H](C)CO)C(=O)CCCn2cc(nn2)CO[C@@H]1CN(C)C(=O)Nc1ccc(C(C)(C)C)cc1,inactive
12,Cc1noc(C)c1NC(=O)Nc1ccc2c(c1)C(=O)N(C)[C@H]1CC[C@H](CC(=O)Nc3ccc4c(c3)CCCC4)O[C@@H]1CO2,active
13,C[C@@H]1CCCCO[C@@H](CN(C)Cc2ccncc2)[C@@H](C)CN([C@@H](C)CO)C(=O)c2cc(NC(=O)C3CCCCC3)ccc2O1,inactive
14,C[C@H](NC(=O)C[C@@H]1C[C@@H]2c3cc(NC(=O)Nc4ccc(C(F)(F)F)cc4)ccc3O[C@@H]2[C@H](CO)O1)c1ccccc1,inactive
15,CC(C)N1C[C@@H](CN(C)CCc2ccc(Cl)c(Cl)c2)Oc2c(NC(=O)c3ccncc3)cccc2C1=O,inactive
16,O=C(CN1CCOCC1)NCC[C@H]1CC[C@H](NC(=O)c2ccccc2F)[C@@H](CO)O1,inactive
17,C[C@@H]1CN([C@@H](C)CO)C(=O)c2cccc(NS(C)(=O)=O)c2O[C@@H]1CN(C)S(=O)(=O)c1ccccc1,inactive
18,C[C@H](CO)N1C[C@H](C)[C@H](CN(C)C(=O)NC2CCCCC2)Oc2c(NC(=O)c3cnccn3)cccc2C1=O,inactive
19,CC(=O)OC12COC1CC(O)C1(C)C(=O)C(O)C3=C(C)C(OC(=O)C(O)C(NC(=O)OC(C)(C)C)c4ccccc4)CC(O)(C(OC(=O)c4ccccc4)C21)C3(C)C.O.O.O (stereo not given),inactive
20,COc1oc(C(=O)NC2CCCCC2)c(-c2ccc(Cl)cc2)c1S(=O)(=O)c1ccc(Cl)cc1,inactive

row,SMILES,cytotoxicity call
1,Cc1cc(OCc2nnc(SC3CCCC3)n2-c2cccnc2)ccc1-c1ccc(S(C)(=O)=O)cc1,active
2,COc1ccc(NC(=O)Nc2ccc3c(c2)C(=O)N([C@H](C)CO)C[C@H](C)[C@@H](CN(C)C(=O)NC(C)C)OCCCC[C@@H](C)O3)cc1,inactive
3,Cc1noc(C)c1NC(=O)Nc1ccc2c(c1)C(=O)N([C@H](C)CO)C[C@H](C)[C@H](CN(C)Cc1ccc3c(c1)OCO3)OCCCC[C@H](C)O2,inactive
4,COc1ccc(S(=O)(=O)N(C)C[C@@H]2Oc3cc(C#CC4CCCC4)ccc3S(=O)(=O)N([C@@H](C)CO)C[C@@H]2C)cc1,inactive
5,Cc1cc(C(=O)Nc2cccc3c2O[C@@H](CN(C)S(=O)(=O)c2ccccc2)[C@@H](C)CN([C@@H](C)CO)C3=O)n(C)n1,inactive
6,CC(=O)n1cc([C@H]2C=C(C(=O)NCc3ccccc3)O[C@@H](OCc3ccc(CO)cc3)C2)c2ccccc21,inactive
7,C[C@@H]1CCCCO[C@H](CN(C)Cc2ccc3c(c2)OCO3)[C@@H](C)CN([C@@H](C)CO)C(=O)c2cc(NS(=O)(=O)c3ccc(F)cc3)ccc2O1,inactive
8,C/C=C1\[C@H](O[C@@H]2O[C@H](CO)[C@@H](O)[C@H](O)[C@H]2O)OC=C(C(=O)OC)[C@H]1CC(=O)OC,inactive
9,C[C@H]1CN([C@@H](C)CO)S(=O)(=O)c2ccc(C#CC3(O)CCCC3)cc2O[C@@H]1CN(C)C(=O)Nc1cccc(F)c1,active
10,Cc1noc(C)c1NC(=O)N(C)C[C@H]1OCCCC[C@H](C)Oc2ccc(NC(=O)Cc3ccccc3)cc2C(=O)N([C@@H](C)CO)C[C@H]1C,inactive
11,C[C@@H]1CN([C@@H](C)CO)C(=O)Cc2cc(NS(=O)(=O)c3cccs3)ccc2O[C@@H]1CN(C)S(=O)(=O)c1ccc(F)cc1,inactive
12,C[C@@H]1CCCCO[C@H](CN(C)C(=O)C2CCCCC2)[C@@H](C)CN([C@@H](C)CO)C(=O)c2cc(NS(=O)(=O)c3ccccc3)ccc2O1,inactive
13,CCC1(C)OC(=O)N(C)C1=O (stereo not given),inactive
14,C[C@H](CO)N1C[C@H](C)[C@H](CN(C)C(=O)CN(C)C)Oc2ncc(-c3ccc(C(=O)N(C)C)cc3)cc2C1=O,inactive
15,C[C@@H]1CN([C@@H](C)CO)C(=O)c2cc(NC(=O)Cn3cnnn3)ccc2O[C@H]1CN(C)Cc1ccc(Oc2ccccc2)cc1,inactive
16,C[C@@H]1CN([C@@H](C)CO)S(=O)(=O)c2ccc(C#CCN(C)C)cc2O[C@@H]1CN(C)S(=O)(=O)c1cccc(F)c1,inactive
17,NC(=O)NCC#Cc1ccc2c(c1)[C@]1(C(=O)N2)[C@H](C(=O)Nc2nc3ccccc3s2)[C@H]2C(=O)O[C@H](c3ccccc3)[C@H](c3ccccc3)N2[C@@H]1c1ccccc1OCCO,inactive
18,COc1ccc(S(=O)(=O)Nc2ccc3c(c2)CC(=O)N([C@@H](C)CO)C[C@@H](C)[C@H](CN(C)CC2CC2)O3)cc1,inactive
19,C[C@@H]1CCCCO[C@H](CN(C)Cc2ccc(C(F)(F)F)cc2)[C@H](C)CN([C@@H](C)CO)C(=O)c2cc(NC(=O)Nc3ccccc3)ccc2O1,inactive
20,C[C@H](CO)N1C[C@H](C)[C@@H](CN(C)S(C)(=O)=O)OCc2cnnn2CCCC1=O,inactive
